Reference: the supplement of paper PMC4967469
A lower IC50 marks a more sensitive line; fits outside the tested doses are given as limits. The AUC spans the tested range (256-fold, ending at the top dose) of the same fit; the more sensitive the line, the further below 1. For some assays here: Any top dose called inferred was derived from the fitted curves, not read from the paper. For some assays here: An entry number marks a drug with two screens in the source, which often give different values.

How the values were obtained:
Experiment in all cases: Viability of human cancer cell lines after 72 h of drug (GDSC screen)
Cytarabine = compound: Nc1ccn([C@@H]2O[C@H](CO)[C@@H](O)[C@@H]2O)c(=O)n1 [Cytarabine]; settings: top dose 2 µM
Protocol: (§1)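 Human cancer cell lines in 384-well plates, medium with 10% serum, drug for 72 h over a 256-fold dose range (nine 2-fold or five 4-fold steps up to the top dose). Adherent lines were fixed and stained with the nucleic acid dye Syto60, suspension lines read with resazurin; signal relative to control wells, capped at 0 and 100%. One two-parameter sigmoid per drug and line, fitted in a mixed model over all curves with the slope shared within a line.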

GSK269962A = compound: CCn1c(-c2nonc2N)nc2cnc(Oc3cccc(NC(=O)c4ccc(OCCN5CCOCC5)cc4)c3)cc21 [GSK269962A]; settings: top dose 5 µM; screen: GDSC drug entry 1192; top dose inferred
Protocol: as §1

MPS-1-IN-1 = compound: COc1cc(N2CCC(O)CC2)ccc1Nc1cc(Nc2ccccc2S(=O)(=O)C(C)C)c2cc[nH]c2n1 [MPS-1-IN-1]; settings: top dose 20 µM; top dose inferred
Protocol: as §1

Zibotentan = compound: COc1nc(C)cnc1NS(=O)(=O)c1cccnc1-c1ccc(-c2nnco2)cc1 [Zibotentan]; settings: top dose 20 µM; top dose inferred
Protocol: as §1

ABT-888 = compound: C[C@]1(c2nc3c(C(N)=O)cccc3[nH]2)CCCN1 [ABT-888]; settings: top dose 5 µM; top dose inferred
Protocol: as §1

(5Z)-7-Oxozeaenol = compound: COc1cc(O)c2c(c1)/C=C/C[C@H](O)[C@H](O)C(=O)/C=C\C[C@H](C)OC2=O [(5Z)-7-Oxozeaenol]; settings: top dose 10 µM; top dose inferred
Protocol: as §1

CP466722 = compound: COc1cc2ncnc(-n3nc(-c4ccccn4)nc3N)c2cc1OC [CP466722]; settings: top dose 16 µM; top dose inferred
Protocol: as §1

QL-X-138 = compound: C=CC(=O)Nc1cc(-n2c(=O)ccc3cnc4ccc(-c5cn[nH]c5)cc4c32)ccc1C [QL-X-138]; settings: top dose 10.24 µM; top dose inferred
Protocol: as §1

KU-55933 = compound: O=c1cc(-c2cccc3c2Sc2ccccc2S3)oc(N2CCOCC2)c1 [KU-55933]; settings: top dose 10 µM
Protocol: as §1

ABT-869 = compound: Cc1ccc(F)c(NC(=O)Nc2ccc(-c3cccc4[nH]nc(N)c34)cc2)c1 [ABT-869]; settings: top dose 1.024 µM; top dose inferred
Protocol: as §1

CHIR-99021 = compound: Cc1cnc(-c2cnc(NCCNc3ccc(C#N)cn3)nc2-c2ccc(Cl)cc2Cl)[nH]1 [CHIR-99021]
Protocol: as §1

[1] = top dose 2.56 µM, screen: GDSC drug entry 154
[2] = top dose 10 µM, screen: GDSC drug entry 1241, top dose inferred

Cell Line	AUC (Cytarabine)	IC50 (Cytarabine)	AUC (GSK269962A)	IC50 (GSK269962A)	AUC (MPS-1-IN-1)	IC50 (MPS-1-IN-1)	AUC (Zibotentan)	IC50 (Zibotentan)	AUC (ABT-888)	IC50 (ABT-888)	AUC ((5Z)-7-Oxozeaenol)	IC50 ((5Z)-7-Oxozeaenol)	AUC (CP466722)	IC50 (CP466722)	AUC (QL-X-138)	IC50 (QL-X-138)	AUC (KU-55933)	IC50 (KU-55933)	AUC (ABT-869)	IC50 (ABT-869)	AUC (CHIR-99021; [1])	IC50 (CHIR-99021; [1])	AUC (CHIR-99021; [2])	IC50 (CHIR-99021; [2])
42-MG-BA (glioma, adherent)	0.797	1.02 µM	0.896	> 5 µM	0.911	> 20 µM	0.984	> 20 µM	0.976	> 5 µM	0.659	1.78 µM	0.922	> 16 µM	0.839	7.67 µM	0.963	> 10 µM	0.968	> 1.02 µM	0.966	> 2.56 µM	0.922	> 10 µM
CADO-ES1 (Ewing sarcoma, suspension)	0.889	> 2 µM	0.828	3.15 µM	0.75	6.64 µM	0.988	> 20 µM	0.98	> 5 µM	0.794	4.7 µM	0.605	1.95 µM	0.74	3.16 µM	0.958	> 10 µM	0.987	> 1.02 µM			0.967	> 10 µM
COR-L321 (lung, suspension)	0.988	> 2 µM	0.924	> 5 µM	0.904	> 20 µM	0.989	> 20 µM	0.98	> 5 µM	0.917	> 10 µM	0.728	4.46 µM	0.749	3.31 µM	0.977	> 10 µM	0.98	> 1.02 µM			0.988	> 10 µM
D-423MG (glioma, adherent)	0.624		0.722	1.55 µM	0.9	> 20 µM	0.973	> 20 µM	0.972	> 5 µM	0.54	0.821 µM	0.683	3.66 µM	0.536	0.822 µM	0.893	> 10 µM	0.97	> 1.02 µM			0.851	> 10 µM
D-566MG (glioma, adherent)	0.633	0.29 µM	0.223	0.0492 µM	0.902	> 20 µM	0.981	> 20 µM	0.969	> 5 µM	0.679	1.96 µM	0.757	5.44 µM	0.713	2.54 µM	0.937	> 10 µM	0.957	> 1.02 µM			0.798	4.68 µM
DOV13 (ovary, adherent)	0.662	0.38 µM	0.883	> 5 µM	0.968	> 20 µM	0.976	> 20 µM	0.984	> 5 µM	0.633	1.54 µM	0.911	> 16 µM	0.97	> 10.2 µM	0.951	> 10 µM	0.979	> 1.02 µM			0.938	> 10 µM
ECC10 (stomach, suspension)	0.908	> 2 µM	0.937	> 5 µM	0.899	> 20 µM	0.982	> 20 µM	0.97	> 5 µM	0.765	3.83 µM	0.827	10.3 µM	0.722	2.82 µM	0.949	> 10 µM	0.975	> 1.02 µM	0.985	> 2.56 µM	0.984	> 10 µM
EMC-BAC-1 (lung adenocarcinoma, adherent)	0.948	> 2 µM	0.861	> 5 µM	0.735	6.51 µM	0.976	> 20 µM	0.974	> 5 µM	0.758	3.93 µM	0.796	8.68 µM	0.787	5.12 µM	0.945	> 10 µM	0.948	> 1.02 µM			0.918	> 10 µM
EMC-BAC-2 (lung adenocarcinoma, adherent)	0.609	0.264 µM	0.712	1.4 µM	0.936	> 20 µM	0.981	> 20 µM	0.974	> 5 µM	0.76	4.14 µM	0.721	4.81 µM	0.512	0.694 µM	0.981	> 10 µM	0.975	> 1.02 µM			0.885	> 10 µM
ESO26 (oesophagus, adherent)	0.776	0.749 µM	0.923	> 5 µM	0.894	> 20 µM	0.987	> 20 µM	0.989	> 5 µM	0.851	6.96 µM	0.852	11.3 µM	0.782	4.03 µM	0.987	> 10 µM	0.981	> 1.02 µM			0.984	> 10 µM
ESO51 (oesophagus, semi-adherent)	0.78	1.2 µM	0.944	> 5 µM	0.932	> 20 µM	0.98	> 20 µM	0.961	> 5 µM	0.85	> 10 µM	0.916	> 16 µM	0.789	6.76 µM	0.974	> 10 µM	0.98	> 1.02 µM			0.966	> 10 µM
